The first test has as its target human CB2 receptor (hCB2) (Homo sapiens, UniProt P34972). Briefly: cell-based. It counts as cell-based.
Details: not given
human CB2 receptor (hCB2), sequence (P34972 whole entry): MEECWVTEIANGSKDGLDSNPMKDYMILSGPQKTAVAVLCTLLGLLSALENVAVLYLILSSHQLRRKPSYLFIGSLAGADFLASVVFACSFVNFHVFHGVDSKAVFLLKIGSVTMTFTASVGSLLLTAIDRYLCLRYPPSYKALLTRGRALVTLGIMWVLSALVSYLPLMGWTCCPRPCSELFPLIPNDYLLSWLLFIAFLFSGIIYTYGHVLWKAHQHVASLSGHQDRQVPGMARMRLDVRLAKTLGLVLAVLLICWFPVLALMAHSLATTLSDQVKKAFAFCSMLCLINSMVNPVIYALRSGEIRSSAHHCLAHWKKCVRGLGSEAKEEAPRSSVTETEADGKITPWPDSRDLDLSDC
For orientation: EC50 means the midpoint of the concentration-response curve. `CN1CCn2c(-c3ccc(Cl)cc3F)nc(C(=O)Nc3ccc(S(N)(=O)=O)cc3)c2C1` [Compound 208, 3-(4-chloro-2-fluorophenyl)-7-methyl-N-(4-sulfamoylphenyl)-5,6,7,8-tetrahydroimidazo[1,5-a]pyrazine-1-carboxamide] gave an EC50 greater than 10000 nM. For `CNC(=O)[C@@H](NC(=O)c1nc(-c2cc(C(F)(F)F)cc(C(F)(F)F)c2)n2c1CN(C)CCC2)C(C)(C)C` [Compound 599, (S)-3-(3,5-bis(trifluoromethyl)phenyl)-N-(3,3-dimethyl-1-(methylamino)-1-oxobutan-2-yl)-8-methyl-6,7,8,9-tetrahydro-5H-imidazo[1,5-a][1,4]diazepine-1-carboxamide], the concentration giving a half-maximal response (EC50) is greater than 10000 nM. Compound `CNC(=O)[C@@H](NC(=O)c1nc(-c2ccc(C(N)=O)cc2)n2c1CN(C)CCC2)C(C)(C)C` [Compound 423, (S)-3-(4-carbamoylphenyl)-N-(3,3-dimethyl-1-(methylamino)-1-oxobutan-2-yl)-8-methyl-6,7,8,9-tetrahydro-5H-imidazo[1,5-a][1,4]diazepine-1-carboxamide] yielded an EC50 greater than 10000 nM. Take `Cc1noc([C@@H](NC(=O)c2nc(-c3ccccc3)n3c2CN(C(C)C)CCC3)C(C)(C)C)n1` [Compound 525, (S)-N-(2,2-dimethyl-1-(3-methyl-1,2,4-oxadiazol-5-yl)propyl)-8-isopropyl-3-phenyl-6,7,8,9-tetrahydro-5H-imidazo[1,5-a][1,4]diazepine-1-carboxamide]: the EC50 is greater than 10000 nM. The same measure, in the same setting: the figure for `CNC(=O)[C@@H](NC(=O)c1nc(-c2ccccc2)n2c1CN(S(=O)(=O)C(C)C)CC2)C(C)(C)C` [Compound 94, (S)-N-(3,3-dimethyl-1-(methylamino)-1-oxobutan-2-yl)-7-(isopropylsulfonyl)-3-phenyl-5,6,7,8-tetrahydroimidazo[1,5-a]pyrazine-1-carboxamide] is greater than 10000 nM. Take `CNC(=O)[C@@H](NC(=O)c1nc(-c2ccccc2)n2c1CN(C(=O)OC)CC2)C(C)(C)C` [Compound 180, (S)-methyl 1-(3,3-dimethyl-1-(methylamino)-1-oxobutan-2-ylcarbamoyl)-3-phenyl-5,6-dihydroimidazo[1,5-a]pyrazine-7(8H)-carboxylate]: the EC50 is greater than 10000 nM. As for `CNC(=O)[C@@H](NC(=O)c1nc(-c2ccc(C(C)(C)C)cc2)n2c1CN(C)CCC2)C(C)(C)C` [Compound 414, (S)-3-(4-tert-butylphenyl)-N-(3,3-dimethyl-1-(methylamino)-1-oxobutan-2-yl)-8-methyl-6,7,8,9-tetrahydro-5H-imidazo[1,5-a][1,4]diazepine-1-carboxamide], the EC50 was greater than 10000 nM.

Staying with this test, now noted: agonist or inverse agonist at hCB2.
`CNC(=O)[C@H](CC(C)C)NC(=O)c1nc(C2=CCCC2)n2c1CN(C)CC2` [Compound 279, (S)-3-cyclopentenyl-7-methyl-N-(4-methyl-1-(methylamino)-1-oxopentan-2-yl)-5,6,7,8-tetrahydroimidazo[1,5-a]pyrazine-1-carboxamide]: the “+/− HCB2” value is reported as “+”. For `CC(C)(C)[C@@H](CO)NC(=O)c1nc(-c2ccccc2)n2c1CN(S(=O)(=O)c1ccc(F)cc1)CC2` [Compound 101, (S)-7-(4-fluorophenylsulfonyl)-N-(1-hydroxy-3,3-dimethylbutan-2-yl)-3-phenyl-5,6,7,8-tetrahydroimidazo[1,5-a]pyrazine-1-carboxamide], the “+/− HCB2” value is listed as “−”. Take `CNC(=O)[C@@H](NC(=O)c1nc(-c2ccccc2)n2c1CN(C(C)C)CCC2)C(C)(C)C` [Compound 319, (S)-N-(3,3-dimethyl-1-(methylamino)-1-oxobutan-2-yl)-8-isopropyl-3-phenyl-6,7,8,9-tetrahydro-5H-imidazo[1,5-a][1,4]diazepine-1-carboxamide]: the “+/− HCB2” value is “+”. In the case of `CC(C)CNC(=O)[C@@H](NC(=O)c1nc(-c2ccccc2)n2c1CN(C)CCC2)C(C)(C)C` [Compound 474, (S)-N-(1-(isobutylamino)-3,3-dimethyl-1-oxobutan-2-yl)-8-methyl-3-phenyl-6,7,8,9-tetrahydro-5H-imidazo[1,5-a][1,4]diazepine-1-carboxamide], the “+/− HCB2” value is listed as “+”. Consider `CN1CCCn2c(-c3cc(F)ccc3F)nc(C(=O)N[C@@H](CC(C)(C)C)C(N)=O)c2C1` [Compound 583, (S)-N-(1-amino-4,4-dimethyl-1-oxopentan-2-yl)-3-(2,5-difluorophenyl)-8-methyl-6,7,8,9-tetrahydro-5H-imidazo[1,5-a][1,4]diazepine-1-carboxamide], for which the “+/− HCB2” value was “+”. On the same count and under the same terms, with `CNC(=O)[C@@H](NC(=O)c1nc(-c2ccccc2)n2c1CN(C)CC2)C(C)C` [Compound 206, (S)-7-methyl-N-(3-methyl-1-(methylamino)-1-oxobutan-2-yl)-3-phenyl-5,6,7,8-tetrahydroimidazo[1,5-a]pyrazine-1-carboxamide] the entry was “+”; with `CN1CCCn2c(-c3ccc(F)c(Cl)c3)nc(C(=O)N[C@@H](CC(C)(C)C)C(N)=O)c2C1` [Compound 587, (S)-N-(1-amino-4,4-dimethyl-1-oxopentan-2-yl)-3-(3-chloro-4-fluorophenyl)-8-methyl-6,7,8,9-tetrahydro-5H-imidazo[1,5-a][1,4]diazepine-1-carboxamide], “+”. With `CNC(=O)[C@@H](NC(=O)c1nc(-c2ccc(C)c(Cl)c2)n2c1CN(C)CCC2)C(C)(C)C` [Compound 334, (S)-3-(3-chloro-4-methylphenyl)-N-(3,3-dimethyl-1-(methylamino)-1-oxobutan-2-yl)-8-methyl-6,7,8,9-tetrahydro-5H-imidazo[1,5-a][1,4]diazepine-1-carboxamide], the “+/− HCB2” value is listed as “+”. For `CCN1CCCn2c(-c3ccccc3)nc(C(=O)N[C@H](C(=O)NC)C(C)(C)C)c2C1` [Compound 318, (S)-N-(3,3-dimethyl-1-(methylamino)-1-oxobutan-2-yl)-8-ethyl-3-phenyl-6,7,8,9-tetrahydro-5H-imidazo[1,5-a][1,4]diazepine-1-carboxamide], the “+/− HCB2” value is “+”. Consider `CCCc1nc(C(=O)N[C@H](C(=O)NC)C(C)(C)C)c2n1CCN(C)C2` [Compound 304, (S)-N-(3,3-dimethyl-1-(methylamino)-1-oxobutan-2-yl)-7-methyl-3-propyl-5,6,7,8-tetrahydroimidazo[1,5-a]pyrazine-1-carboxamide], for which the “+/− HCB2” value is listed as “+”.

Still in this test, the particulars now being: groups >100 nM-10 μM and >10 μM; cAMP, CHO-K1 hCB2; read-out: EC50 HCB2.
Turning to `O=C(NN1CCCCC1)c1nc(-c2ccccc2)n2c1CN(CCO)CC2` [Compound 156, 7-(2-hydroxyethyl)-3-phenyl-N-(piperidin-1-yl)-5,6,7,8-tetrahydroimidazo[1,5-a]pyrazine-1-carboxamide], the EC50 is greater than 10000 nM.

For `CC(C)=CC(=O)c1nc(-c2ccccc2)n2c1CN(C)CC2` [Compound 293, 3-methyl-1-(7-methyl-3-phenyl-5,6,7,8-tetrahydroimidazo[1,5-a]pyrazin-1-yl)but-2-en-1-one], the EC50 is greater than 10000 nM.

For the compound `CC(C)(CO)CNC(=O)c1nc(-c2ccccc2)n2c1CN(CC1CC1)CC2` [Compound 83, 7-(cyclopropylmethyl)-N-(3-hydroxy-2,2-dimethylpropyl)-3-phenyl-5,6,7,8-tetrahydroimidazo[1,5-a]pyrazine-1-carboxamide], the EC50 was greater than 10000 nM.
